Among all 110,000 compounds or so, about 230 (0.21%) showed an effect of 50% or more. The list shows a part of the results. *1 amine or outer side, *2 acyl side, *3 side chain or, on linkers, in order; H or OH if unused. Where a SMILES comes first, the peptide text is derived from it. Where no end group is shown, it is not given here. [ ]: non-standard residue; d: D form. The star is where a group is joined. Tyr(3,5-I2) = N[C@@H](Cc1cc(I)c(O)c(I)c1)C(=O)O; Morpholide = C1CN(*)CCO1; Cbz = O=C(OCc1ccccc1)*; CO = O=C([*:1])[*:2]
What follows are compounds tested against DPAP1 (Plasmodium falciparum, UniProt Q8IIJ9) (assay: primary screen, percent inhibition; read by cleavage of a fluorogenic dipeptide substrate; higher = more effect of the substance).
Set-up: species or system P. falciparum D10 trophozoite lysates; single well
Procedure: HTS was performed in black 384-well plates. The first and last two columns of each plate contained our negative (DMSO) and positive (10 μM JCP410) controls, and the 20 central columns the test compounds at 10 μM. Compounds were first diluted 50-fold into assay buffer (50 mM sodium acetate, 5 mM MgCl2, 10 mM β-mercaptoethanol, and 0.1% CHAPS, pH 5.5) from a 10 mM DMSO stock plates. One microliter of this 200 μM intermediate stock plate was dispensed into the assay plate. […] After 30 min, the reaction was quenched with 20 μL of 0.5 M acetic acid, and the fluorescent intensity measured at 523 nm (λex = 492 nm) using an Analyst HT multimode plate reader (Molecular Devices).
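Also: 30 min substrate incubation versus DMSO and 10 µM JCP410 controls.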

DPAP1, sequence (Q8IIJ9 whole entry, looked up): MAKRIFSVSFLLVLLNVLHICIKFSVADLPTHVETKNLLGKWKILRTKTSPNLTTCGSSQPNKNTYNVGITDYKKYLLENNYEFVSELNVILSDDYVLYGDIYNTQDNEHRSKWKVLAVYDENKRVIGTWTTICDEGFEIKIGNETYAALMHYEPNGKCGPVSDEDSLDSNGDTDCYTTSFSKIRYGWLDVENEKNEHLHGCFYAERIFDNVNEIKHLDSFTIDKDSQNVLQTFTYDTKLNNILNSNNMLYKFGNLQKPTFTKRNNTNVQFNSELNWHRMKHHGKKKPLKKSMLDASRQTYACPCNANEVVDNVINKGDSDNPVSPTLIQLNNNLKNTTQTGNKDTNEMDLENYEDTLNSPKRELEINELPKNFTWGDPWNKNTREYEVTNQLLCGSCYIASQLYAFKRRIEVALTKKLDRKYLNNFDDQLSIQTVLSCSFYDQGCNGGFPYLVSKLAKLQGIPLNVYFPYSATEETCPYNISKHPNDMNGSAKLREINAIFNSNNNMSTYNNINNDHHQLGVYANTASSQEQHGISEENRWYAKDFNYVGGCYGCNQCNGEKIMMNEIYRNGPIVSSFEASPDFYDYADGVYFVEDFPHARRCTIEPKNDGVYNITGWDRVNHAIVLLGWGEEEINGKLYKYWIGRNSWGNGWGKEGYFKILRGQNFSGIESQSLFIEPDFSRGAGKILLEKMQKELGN

First: CCC(C)C(NC(=O)C(C)NC(=O)CNC(=O)CNC(=O)OCc1ccccc1)C(N)=O (stereo not shown) (Cbz-GGAI-NH2; configuration not given here)
Second: CSCC[C@H](NC(=O)[C@@H](NC(=O)[C@H](Cc1cc(I)c(O)c(I)c1)NC(=O)N1CCOCC1)C(C)C)C(=O)N[C@@H](Cc1ccccc1)C(=O)O ({Morpholide-CO}-[Tyr(3,5-I2)]VMF-OH)
The “% Inhibition @ 10 uM” value of the first is higher: -1.93% for the first, -4.72% for the second.

Compared with `CSCC[C@H](NC(=O)[C@@H](NC(=O)[C@H](CCCCCN)NC(=O)[C@H](CCC(N)=O)NC(=O)[C@@H]1CCCN1C(=O)[C@@H]1CCCN1)C(C)C)C(=O)N[C@@H](Cc1ccccc1)C(=O)O` (HELM PEPTIDE1{P.P.Q.[NCCCCC[C@H](N[*:1])C(=O)[*:2]].V.M.F}$$$$V2.0), Ac-PPQRVMP is higher in “% Inhibition @ 10 uM” value: -3.04% for the first, -0.778% for the second.

Going from Ac-PPQRVMF to `CSCC[C@H](NC(=O)[C@@H](NC(=O)[C@H](Cc1cc(I)c(O)c(I)c1)NC(C)=O)C(C)C)C(=O)N[C@@H](Cc1ccccc1)C(=O)O` (HELM PEPTIDE1{[ac].[O=C([C@H](Cc1cc(I)c(O)c(I)c1)N[*:1])[*:2]].V.M.F}$$$$V2.0), the “% Inhibition @ 10 uM” value rises from -7.36% to -3.04%.

For `CSCC[C@H](NC(=O)[C@@H](NC(=O)[C@H](Cc1cc(I)c(O)c(I)c1)NC(=O)[C@H](CCC(N)=O)NC(=O)[C@@H]1CCCN1C(=O)[C@@H]1CCCN1)C(C)C)C(=O)N[C@@H](Cc1ccccc1)C(=O)O` (HELM PEPTIDE1{P.P.Q.[O=C([C@H](Cc1cc(I)c(O)c(I)c1)N[*:1])[*:2]].V.M.F}$$$$V2.0), the “% Inhibition @ 10 uM” value was -3.04%.
